# Results: the supplement of paper PMC8728848
# The other results are listed elsewhere or left out.
# How the values were obtained:
# Experiment in all cases: glycan array binding signal (z-score within array); higher = stronger binding
# Conditions in all cases: glycan notation: IUPAC condensed, linker removed
# [1] = target: Fuc(a1-2)[Gal(a1-3)]Gal(b1-4)GlcNAc(b1-2)Man(a1-3)[Fuc(a1-2)[Gal(a1-3)]Gal(b1-4)GlcNAc(b1-2)Man(a1-6)]Man(b1-4)GlcNAc(b1-4)GlcNAc
# How it was run: (§1)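 From the Consortium for Functional Glycomics database, 3228 arrays were curated, keeping only those whose protein sequence was available. Binding is given as a within-array Z-score averaged across arrays sharing a protein sequence and across linkers. Negative Z-scores can be read as non-binding.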
# [2] = target: Fuc(a1-2)[Gal(a1-3)]Gal(b1-4)[Fuc(a1-3)]GlcNAc
# How it was run: as §1
# [3] = target: Fuc(a1-2)[Gal(a1-4)]Gal(b1-4)GlcNAc
# How it was run: as §1
# [4] = target: Fuc(a1-2)[GalNAc(a1-3)]Gal
# How it was run: as §1
# [5] = target: Fuc(a1-2)[GalNAc(a1-3)]Gal(b1-3)GlcNAc
# How it was run: as §1
# [6] = target: Fuc(a1-2)[GalNAc(a1-3)]Gal(b1-3)GlcNAc(b1-2)Man(a1-3)[Fuc(a1-2)[GalNAc(a1-3)]Gal(b1-3)GlcNAc(b1-2)Man(a1-6)]Man(b1-4)GlcNAc(b1-4)GlcNAc
# How it was run: as §1
# [7] = target: Fuc(a1-2)[GalNAc(a1-3)]Gal(b1-4)Glc
# How it was run: as §1
# [8] = target: Fuc(a1-2)[GalNAc(a1-3)]Gal(b1-4)GlcNAc
# How it was run: as §1
# [9] = target: Fuc(a1-2)[GalNAc(a1-3)]Gal(b1-4)GlcNAc(b1-2)Man(a1-3)[GalNAc(a1-3)[Fuc(a1-2)]Gal(b1-4)GlcNAc(b1-2)Man(a1-6)]Man(b1-4)GlcNAc(b1-4)GlcNAc
# How it was run: as §1
# [10] = target: Fuc(a1-2)[GalNAc(a1-3)]Gal(b1-4)GlcNAc(b1-3)Gal(b1-4)GlcNAc
# How it was run: as §1
# [11] = target: Fuc(a1-2)[GalNAc(a1-3)]Gal(b1-4)GlcNAc(b1-3)Gal(b1-4)GlcNAc(b1-3)Gal(b1-4)GlcNAc
# How it was run: as §1
# [12] = target: Fuc(a1-2)[GalNAc(a1-3)]Gal(b1-4)[Fuc(a1-3)]GlcNAc
# How it was run: as §1
# [13] = target: Fuc(a1-2)[GalNAc(a1-4)]Gal(b1-4)GlcNAc
# How it was run: as §1
# [14] = target: Fuc(a1-2)[GalNAc(b1-3)]Gal
# How it was run: as §1
# [15] = target: Fuc(a1-3)GlcNAc
# How it was run: as §1
# [16] = target: Fuc(a1-3)[Gal(b1-4)]Glc6S
# How it was run: as §1
# [17] = target: Fuc(a1-3)[Gal(b1-4)]GlcNAc
# How it was run: as §1
# [18] = target: Fuc(a1-3)[Gal(b1-4)]GlcNAc(b1-2)Man(a1-3)[Fuc(a1-3)[Gal(b1-4)]GlcNAc(b1-2)Man(a1-6)]Man(b1-4)GlcNAc(b1-4)GlcNAc
# How it was run: as §1
# [19] = target: Fuc(a1-3)[Gal(b1-4)]GlcNAc(b1-2)Man(a1-6)[Gal(b1-4)GlcNAc(b1-2)Man(a1-3)]Man(b1-4)GlcNAc(b1-4)GlcNAc
# How it was run: as §1
# [20] = target: Fuc(a1-3)[Gal(b1-4)]GlcNAc(b1-3)Gal(b1-3)[Fuc(a1-4)]GlcNAc
# How it was run: as §1
# [21] = target: Fuc(a1-3)[Gal(b1-4)]GlcNAc(b1-4)Gal(b1-4)[Fuc(a1-3)]GlcNAc
# How it was run: as §1
# [22] = target: Fuc(a1-3)[Gal(b1-4)]GlcNAc(b1-4)Gal(b1-4)[Fuc(a1-3)]GlcNAc(b1-4)Gal(b1-4)[Fuc(a1-3)]GlcNAc
# How it was run: as §1
# [23] = target: Fuc(a1-3)[Gal(b1-4)]GlcNAc6S
# How it was run: as §1
# [24] = target: Fuc(a1-3)[Gal3S(b1-4)]Glc6S
# How it was run: as §1
# [25] = target: Fuc(a1-3)[Gal3S(b1-4)]GlcNAc
# How it was run: as §1
# [26] = target: Fuc(a1-3)[Gal3S(b1-4)]GlcNAc6S
# How it was run: as §1
# [27] = target: Fuc(a1-3)[GalNAc(b1-4)]GlcNAc
# How it was run: as §1
# [28] = target: Fuc(a1-4)GlcNAc
# How it was run: as §1
# [29] = target: Fuc(b1-3)GlcNAc
# How it was run: as §1
# [30] = target: Gal(a1-2)Gal
# How it was run: as §1
# [31] = target: Gal(a1-3)Gal
# How it was run: as §1
# [32] = target: Gal(a1-3)Gal(b1-3)GlcNAc
# How it was run: as §1
# [33] = target: Gal(a1-3)Gal(b1-4)Glc
# How it was run: as §1
# [34] = target: Gal(a1-3)Gal(b1-4)GlcNAc
# How it was run: as §1
# [35] = target: Gal(a1-3)Gal(b1-4)[Fuc(a1-3)]GlcNAc
# How it was run: as §1
# [36] = target: Gal(a1-3)Gal(b1-4)[Fuc(a1-3)]GlcNAc(b1-2)Man(a1-3)[Gal(a1-3)Gal(b1-4)[Fuc(a1-3)]GlcNAc(b1-2)Man(a1-6)]Man(b1-4)GlcNAc(b1-4)GlcNAc
# How it was run: as §1
# [37] = target: Gal(a1-3)GalNAc
# How it was run: as §1
# [38] = target: Gal(a1-3)[Gal(a1-4)]Gal(b1-4)GlcNAc
# How it was run: as §1
# [39] = target: Gal(a1-4)Gal(b1-4)Glc
# How it was run: as §1
# [40] = target: Gal(a1-4)Gal(b1-4)GlcNAc
# How it was run: as §1
# [41] = target: Gal(a1-4)Gal(b1-4)GlcNAc(b1-3)Gal(b1-4)Glc
# How it was run: as §1
# [42] = target: Gal(a1-4)GlcNAc
# How it was run: as §1
# [43] = target: Gal(a1-6)Glc
# How it was run: as §1
# [44] = target: Gal(b1-2)Gal
# How it was run: as §1
# [45] = target: Gal(b1-3)Gal
# How it was run: as §1
binder,measurement,setting,value
"GIINTLQKYYCRVRGGRCAVLSCLPKEEQIGKCSTRGRKCCRRKK [Beta-Defensin 3 (Homo sapiens), P81534]",glycan array binding signal (z-score),[1],-0.582
same,glycan array binding signal (z-score),[2],0.22
same,glycan array binding signal (z-score),[3],-0.449
same,glycan array binding signal (z-score),[4],-0.321
same,glycan array binding signal (z-score),[5],-0.489
same,glycan array binding signal (z-score),[6],-0.167
same,glycan array binding signal (z-score),[7],-0.57
same,glycan array binding signal (z-score),[8],-0.435
same,glycan array binding signal (z-score),[9],-0.567
same,glycan array binding signal (z-score),[10],2.16
same,glycan array binding signal (z-score),[11],1.43
same,glycan array binding signal (z-score),[12],-0.366
same,glycan array binding signal (z-score),[13],-0.592
same,glycan array binding signal (z-score),[14],-0.299
same,glycan array binding signal (z-score),[15],-0.384
same,glycan array binding signal (z-score),[16],0.966
same,glycan array binding signal (z-score),[17],-0.229
same,glycan array binding signal (z-score),[18],-0.32
same,glycan array binding signal (z-score),[19],-0.789
same,glycan array binding signal (z-score),[20],-0.468
same,glycan array binding signal (z-score),[21],-0.259
same,glycan array binding signal (z-score),[22],-0.422
same,glycan array binding signal (z-score),[23],1.84
same,glycan array binding signal (z-score),[24],3.57
same,glycan array binding signal (z-score),[25],0.117
same,glycan array binding signal (z-score),[26],8.21
same,glycan array binding signal (z-score),[27],-0.467
same,glycan array binding signal (z-score),[28],-0.369
same,glycan array binding signal (z-score),[29],-0.47
same,glycan array binding signal (z-score),[30],0.457
same,glycan array binding signal (z-score),[31],0.608
same,glycan array binding signal (z-score),[32],-0.477
same,glycan array binding signal (z-score),[33],-0.491
same,glycan array binding signal (z-score),[34],-0.238
same,glycan array binding signal (z-score),[35],-0.233
same,glycan array binding signal (z-score),[36],-0.694
same,glycan array binding signal (z-score),[37],0.1
same,glycan array binding signal (z-score),[38],-0.427
same,glycan array binding signal (z-score),[39],-0.018
same,glycan array binding signal (z-score),[40],-0.265
same,glycan array binding signal (z-score),[41],0.228
same,glycan array binding signal (z-score),[42],-0.126
same,glycan array binding signal (z-score),[43],0.163
same,glycan array binding signal (z-score),[44],0.102
same,glycan array binding signal (z-score),[45],0.134
